# Laboratory results as given in the supplement of paper PMC8728848.
# Some of the results follow.
# B1: Gal-9-hFc (Mus musculus), O08573-2 (protein)
# chain: MALFSAQSPYINPIIPFTGPIQGGLQEGLQVTLQGTTKSFAQRFVVNFQNSFNGNDIAFHFNPRFEEGGYVVCNTKQNGQWGPEERKMQMPFQKGMPFELCFLVQRSEFKVMVNKKFFVQYQHRVPYHLVDTIAVSGCLKLSFITFQTQNFRPAHQAPMAQTTIHMVHSTPGQMFSTPGIPPVVYPTPAYTIPFYTPIPNGLYPSKSIMISGNVLPDATRFHINLRCGGDIAFHLNPRFNENAVVRNTQINNSWGQEERSLLGRMPFSRGQSFSVWIICEGHCFKVAVNGQHMCEYYHRLKNLQDINTLEVAGDIQLTHVQT
# Experiments:
# Experiment in all cases: glycan array binding signal (z-score within array); higher = stronger binding
# Conditions in all cases: glycan notation: IUPAC condensed, linker removed
# [1] = target: Gal(b1-4)GlcNAc(b1-3)Gal(b1-4)GlcNAc(b1-3)[Gal(b1-4)GlcNAc(b1-3)Gal(b1-4)GlcNAc(b1-6)]GalNAc
# Method in brief: (§1)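 Negative Z-scores can be read as non-binding. The Z-score is calculated within each array and then averaged across arrays of one protein sequence at different concentrations or buffers and across linkers. Arrays, 3228 in all, were curated from the Consortium for Functional Glycomics database and kept only where the protein sequence was available.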
# [2] = target: Gal(b1-4)GlcNAc(b1-3)Gal(b1-4)GlcNAc(b1-6)[Gal(b1-3)]GalNAc
# Method in brief: as §1
# [3] = target: Gal(b1-4)GlcNAc(b1-3)Gal(b1-4)[Fuc(a1-3)]GlcNAc(b1-3)Gal(b1-4)[Fuc(a1-3)]GlcNAc
# Method in brief: as §1
# [4] = target: Gal(b1-4)GlcNAc(b1-3)GalNAc
# Method in brief: as §1
# [5] = target: Gal(b1-4)GlcNAc(b1-3)[Fuc(a1-3)GlcNAc(b1-6)]Gal(b1-4)Glc
# Method in brief: as §1
# [6] = target: Gal(b1-4)GlcNAc(b1-3)[Gal(b1-4)GlcNAc(b1-6)]Gal(b1-4)GlcNAc
# Method in brief: as §1
# [7] = target: Gal(b1-4)GlcNAc(b1-3)[GlcNAc(b1-6)]Gal(b1-4)GlcNAc
# Method in brief: as §1
# [8] = target: Gal(b1-4)GlcNAc(b1-6)Gal(b1-4)GlcNAc
# Method in brief: as §1
# [9] = target: Gal(b1-4)GlcNAc(b1-6)GalNAc
# Method in brief: as §1
# [10] = target: Gal(b1-4)GlcNAc(b1-6)[Gal(b1-3)]GalNAc
# Method in brief: as §1
# [11] = target: Gal(b1-4)GlcNAc(b1-6)[Gal(b1-4)GlcNAc(b1-3)]GalNAc
# Method in brief: as §1
# [12] = target: Gal(b1-4)GlcNAc6P
# Method in brief: as §1
# [13] = target: Gal(b1-6)Gal
# Method in brief: as §1
# [14] = target: Gal3S(b1-3)GalNAc
# Method in brief: as §1
# [15] = target: Gal3S(b1-3)GlcNAc
# Method in brief: as §1
# [16] = target: Gal3S(b1-3)[Fuc(a1-4)]GlcNAc
# Method in brief: as §1
# [17] = target: Gal3S(b1-4)Glc
# Method in brief: as §1
# [18] = target: Gal3S(b1-4)Glc6S
# Method in brief: as §1
# [19] = target: Gal3S(b1-4)GlcNAc
# Method in brief: as §1
# [20] = target: Gal3S(b1-4)[Fuc(a1-3)]Glc6S
# Method in brief: as §1
# [21] = target: Gal3S(b1-4)[Fuc(a1-3)]GlcNAc
# Method in brief: as §1
# [22] = target: Gal3S(b1-4)[Fuc(a1-3)]GlcNAc6S
# Method in brief: as §1
# [23] = target: Gal3S4S(b1-4)GlcNAc
# Method in brief: as §1
# [24] = target: Gal3S6S(b1-4)GlcNAc
# Method in brief: as §1
# [25] = target: Gal3S6S(b1-4)GlcNAc6S
# Method in brief: as §1
# [26] = target: Gal4S(b1-4)GlcNAc
# Method in brief: as §1
# [27] = target: Gal4S6S(b1-4)GlcNAc
# Method in brief: as §1
# [28] = target: Gal6P(b1-4)GlcNAc
# Method in brief: as §1
# [29] = target: Gal6S(b1-3)GlcNAc
# Method in brief: as §1
# [30] = target: Gal6S(b1-3)GlcNAc6S
# Method in brief: as §1
# [31] = target: Gal6S(b1-4)Glc
# Method in brief: as §1
# [32] = target: Gal6S(b1-4)Glc6S
# Method in brief: as §1
# [33] = target: Gal6S(b1-4)GlcNAc
# Method in brief: as §1
# [34] = target: Gal6S(b1-4)GlcNAc6S
# Method in brief: as §1
# [35] = target: GalNAc(a1-3)Gal
# Method in brief: as §1
# [36] = target: GalNAc(a1-3)GalNAc
# Method in brief: as §1
# [37] = target: GalNAc(a1-3)GalNAc(b1-3)Gal(a1-4)Gal(b1-4)Glc
# Method in brief: as §1
# [38] = target: GalNAc(a1-3)GalNAc(b1-3)Gal(a1-4)Gal(b1-4)GlcNAc
# Method in brief: as §1
# [39] = target: GalNAc(b1-3)Gal
# Method in brief: as §1
# [40] = target: GalNAc(b1-3)Gal(a1-4)Gal(b1-4)GlcNAc
# Method in brief: as §1
# [41] = target: GalNAc(b1-3)Gal(a1-4)Gal(b1-4)GlcNAc(b1-3)Gal(b1-4)Glc
# Method in brief: as §1
# [42] = target: GalNAc(b1-3)Gal(a1-6)Gal(b1-4)Glc
# Method in brief: as §1
# [43] = target: GalNAc(b1-3)GalNAc
# Method in brief: as §1
# [44] = target: GalNAc(b1-3)GlcNAc
# Method in brief: as §1
# [45] = target: GalNAc(b1-4)Gal(b1-4)Glc
# Method in brief: as §1
# [46] = target: GalNAc(b1-4)GlcNAc
# Method in brief: as §1
# [47] = target: GalNAc(b1-4)GlcNAc(b1-2)Man
# Method in brief: as §1
# [48] = target: GalNAc(b1-4)GlcNAc(b1-2)Man(a1-3)[GalNAc(b1-4)GlcNAc(b1-2)Man(a1-6)]Man(b1-4)GlcNAc(b1-4)GlcNAc
# Method in brief: as §1
# [49] = target: GalNAc(b1-4)GlcNAc(b1-3)GalNAc(b1-4)GlcNAc
# Method in brief: as §1
# [50] = target: GalNAc(b1-4)GlcNAc6S
# Method in brief: as §1
# [51] = target: GalNAc(b1-6)GalNAc
# Method in brief: as §1
# [52] = target: GalNAc3S(b1-4)GlcNAc
# Method in brief: as §1
# [53] = target: GalNAc3S(b1-4)GlcNAc3S
# Method in brief: as §1
# [54] = target: GalNAc3S(b1-4)[Fuc(a1-3)]GlcNAc
# Method in brief: as §1
# [55] = target: GalNAc4S6S(b1-4)GlcNAc
# Method in brief: as §1
# [56] = target: GalNAc6S(b1-4)GlcNAc
# Method in brief: as §1
# [57] = target: Glc(a1-4)Glc
# Method in brief: as §1
# [58] = target: Glc(a1-4)Glc(a1-4)Glc(a1-4)Glc
# Method in brief: as §1
# [59] = target: Glc(a1-6)Glc(a1-6)Glc
# Method in brief: as §1
# [60] = target: Glc(a1-6)Glc(a1-6)Glc(a1-6)Glc
# Method in brief: as §1
# [61] = target: Glc(b1-4)Glc
# Method in brief: as §1
# [62] = target: Glc(b1-6)Glc
# Method in brief: as §1
# [63] = target: GlcA(b1-3)Gal
# Method in brief: as §1
# [64] = target: GlcA(b1-3)GlcNAc
# Method in brief: as §1
# [65] = target: GlcA(b1-6)Gal
# Method in brief: as §1
# [66] = target: GlcA3S(b1-3)Gal(b1-4)GlcNAc(b1-2)Man
# Method in brief: as §1
# [67] = target: GlcA3S(b1-3)Gal(b1-4)GlcNAc(b1-3)Gal(b1-4)Glc
# Method in brief: as §1
# [68] = target: GlcNAc(a1-3)Gal(b1-4)GlcNAc
# Method in brief: as §1
# [69] = target: GlcNAc(a1-4)Gal(b1-3)GlcNAc
# Method in brief: as §1
# [70] = target: GlcNAc(a1-4)Gal(b1-4)GalNAc
# Method in brief: as §1
# [71] = target: GlcNAc(a1-4)Gal(b1-4)GlcNAc
# Method in brief: as §1
# [72] = target: GlcNAc(a1-4)Gal(b1-4)GlcNAc(b1-3)Gal(b1-4)Glc
# Method in brief: as §1
# [73] = target: GlcNAc(a1-4)Gal(b1-4)GlcNAc(b1-3)Gal(b1-4)GlcNAc
# Method in brief: as §1
# [74] = target: GlcNAc(a1-4)Gal(b1-4)GlcNAc(b1-3)Gal(b1-4)GlcNAc(b1-3)Gal(b1-4)GlcNAc
# Method in brief: as §1
# [75] = target: GlcNAc(a1-4)Gal(b1-4)GlcNAc(b1-3)Gal(b1-4)[Fuc(a1-3)]GlcNAc(b1-3)Gal(b1-4)[Fuc(a1-3)]GlcNAc
# Method in brief: as §1
binder,measurement,setting,value
B1,glycan array binding signal (z-score),[1],0.807
same,glycan array binding signal (z-score),[2],0.343
same,glycan array binding signal (z-score),[3],-0.386
same,glycan array binding signal (z-score),[4],-0.461
same,glycan array binding signal (z-score),[5],-0.336
same,glycan array binding signal (z-score),[6],-0.337
same,glycan array binding signal (z-score),[7],2.07
same,glycan array binding signal (z-score),[8],-0.356
same,glycan array binding signal (z-score),[9],-0.082
same,glycan array binding signal (z-score),[10],0.33
same,glycan array binding signal (z-score),[11],-0.339
same,glycan array binding signal (z-score),[12],0.047
same,glycan array binding signal (z-score),[13],0.505
same,glycan array binding signal (z-score),[14],1.45
same,glycan array binding signal (z-score),[15],1.26
same,glycan array binding signal (z-score),[16],0.257
same,glycan array binding signal (z-score),[17],1.42
same,glycan array binding signal (z-score),[18],4.35
same,glycan array binding signal (z-score),[19],0.61
same,glycan array binding signal (z-score),[20],0.428
same,glycan array binding signal (z-score),[21],-0.299
same,glycan array binding signal (z-score),[22],3.57
same,glycan array binding signal (z-score),[23],-0.2
same,glycan array binding signal (z-score),[24],-0.138
same,glycan array binding signal (z-score),[25],1.57
same,glycan array binding signal (z-score),[26],-0.51
same,glycan array binding signal (z-score),[27],-0.278
same,glycan array binding signal (z-score),[28],-0.364
same,glycan array binding signal (z-score),[29],-0.289
same,glycan array binding signal (z-score),[30],-0.365
same,glycan array binding signal (z-score),[31],0.187
same,glycan array binding signal (z-score),[32],0.568
same,glycan array binding signal (z-score),[33],-0.293
same,glycan array binding signal (z-score),[34],0.342
same,glycan array binding signal (z-score),[35],-0.203
same,glycan array binding signal (z-score),[36],-0.382
same,glycan array binding signal (z-score),[37],-0.404
same,glycan array binding signal (z-score),[38],-0.363
same,glycan array binding signal (z-score),[39],-0.279
same,glycan array binding signal (z-score),[40],-0.351
same,glycan array binding signal (z-score),[41],-0.251
same,glycan array binding signal (z-score),[42],-0.602
same,glycan array binding signal (z-score),[43],-0.448
same,glycan array binding signal (z-score),[44],-0.308
same,glycan array binding signal (z-score),[45],0.615
same,glycan array binding signal (z-score),[46],-0.176
same,glycan array binding signal (z-score),[47],-0.497
same,glycan array binding signal (z-score),[48],0.338
same,glycan array binding signal (z-score),[49],-0.192
same,glycan array binding signal (z-score),[50],-0.156
same,glycan array binding signal (z-score),[51],-0.076
same,glycan array binding signal (z-score),[52],0.448
same,glycan array binding signal (z-score),[53],-0.064
same,glycan array binding signal (z-score),[54],-0.05
same,glycan array binding signal (z-score),[55],-0.079
same,glycan array binding signal (z-score),[56],-0.416
same,glycan array binding signal (z-score),[57],0.158
same,glycan array binding signal (z-score),[58],-0.126
same,glycan array binding signal (z-score),[59],0.138
same,glycan array binding signal (z-score),[60],0.251
same,glycan array binding signal (z-score),[61],0.009
same,glycan array binding signal (z-score),[62],0.449
same,glycan array binding signal (z-score),[63],0.598
same,glycan array binding signal (z-score),[64],-0.298
same,glycan array binding signal (z-score),[65],1.85
same,glycan array binding signal (z-score),[66],0.573
same,glycan array binding signal (z-score),[67],0.664
same,glycan array binding signal (z-score),[68],-0.192
same,glycan array binding signal (z-score),[69],-0.396
same,glycan array binding signal (z-score),[70],-0.234
same,glycan array binding signal (z-score),[71],-0.291
same,glycan array binding signal (z-score),[72],-0.272
same,glycan array binding signal (z-score),[73],-0.186
same,glycan array binding signal (z-score),[74],-0.398
same,glycan array binding signal (z-score),[75],1.19
